Experimental data as given in paper PMC8632923.
No constants are given. Whether binding was seen depends on the method and setting. In cells and extracts the contact can be indirect.

Amino acid sequences for entries named in this document (tags omitted). Residues count along the entry.
UniProt P08581, residues 25-1390: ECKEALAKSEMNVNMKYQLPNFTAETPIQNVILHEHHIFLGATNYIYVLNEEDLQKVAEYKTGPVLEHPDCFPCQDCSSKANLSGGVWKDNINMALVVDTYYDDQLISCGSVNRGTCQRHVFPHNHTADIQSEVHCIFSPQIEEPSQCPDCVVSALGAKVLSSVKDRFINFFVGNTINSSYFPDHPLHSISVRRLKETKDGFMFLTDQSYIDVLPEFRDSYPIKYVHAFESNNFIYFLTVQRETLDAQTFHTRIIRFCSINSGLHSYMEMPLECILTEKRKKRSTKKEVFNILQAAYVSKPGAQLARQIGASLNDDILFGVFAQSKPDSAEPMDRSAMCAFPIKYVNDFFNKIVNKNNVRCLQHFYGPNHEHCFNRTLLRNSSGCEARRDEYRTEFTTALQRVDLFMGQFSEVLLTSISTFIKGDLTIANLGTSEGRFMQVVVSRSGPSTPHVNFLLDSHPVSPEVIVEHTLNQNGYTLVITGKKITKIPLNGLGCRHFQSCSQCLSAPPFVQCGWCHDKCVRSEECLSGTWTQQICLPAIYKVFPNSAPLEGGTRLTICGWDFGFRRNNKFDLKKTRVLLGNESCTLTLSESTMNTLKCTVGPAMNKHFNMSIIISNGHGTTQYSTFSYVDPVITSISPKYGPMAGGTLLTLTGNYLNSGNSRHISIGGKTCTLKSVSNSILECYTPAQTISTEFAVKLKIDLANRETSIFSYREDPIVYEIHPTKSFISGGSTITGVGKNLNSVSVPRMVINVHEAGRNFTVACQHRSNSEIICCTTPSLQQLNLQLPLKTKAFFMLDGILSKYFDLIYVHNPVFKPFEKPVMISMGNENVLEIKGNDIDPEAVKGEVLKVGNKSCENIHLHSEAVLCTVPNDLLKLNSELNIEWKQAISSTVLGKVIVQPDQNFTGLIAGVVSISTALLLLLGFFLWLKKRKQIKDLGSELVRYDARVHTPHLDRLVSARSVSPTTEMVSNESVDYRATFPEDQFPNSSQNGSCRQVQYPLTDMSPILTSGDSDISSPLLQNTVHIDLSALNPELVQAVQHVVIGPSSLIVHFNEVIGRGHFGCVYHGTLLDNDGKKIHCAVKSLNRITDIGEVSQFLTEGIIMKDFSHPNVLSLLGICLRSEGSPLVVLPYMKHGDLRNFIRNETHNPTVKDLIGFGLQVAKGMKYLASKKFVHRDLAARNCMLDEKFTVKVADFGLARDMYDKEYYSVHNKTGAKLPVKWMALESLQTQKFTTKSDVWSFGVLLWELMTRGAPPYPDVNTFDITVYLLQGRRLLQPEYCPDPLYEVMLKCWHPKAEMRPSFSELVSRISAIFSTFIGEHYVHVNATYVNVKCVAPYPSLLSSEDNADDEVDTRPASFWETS

Target: exogenous Met (human) (UniProt P08581)
Experiment: co-IP; exogenous Met in Huh7 cells, with or without HGF (Supplementary Fig. S2f)

| binding | Binder |
| --- | --- |
| no binding | Mid49 (protein, UniProt Q96C03 1-454) MAEFSQKRGKRRSDEGLGSMVDFLLANARLVLGVGGAAVLGIATLAVKRFIDRATSPRDEDDTKADSWKELSLLKATPHLQPRPPPAALSQPVLPLAPSSSAPEGPAETDPEVTPQLSSPAPLCLTLQERLLAFERDRVTIPAAQVALAKQLAGDIALELQAYFRSKFPELPFGAFVPGGPLYDGLQAGAADHVRLLVPLVLEPGLWSLVPGVDTVARDPRCWAVRRTQLEFCPRGSSPWDRFLVGGYLSSRVLLELLRKALAASVNWPAIGSLLGCLIRPSMASEELLLEVQHERLELTVAVLVAVPGVDADDRLLLAWPLEGLAGNLWLQDLYPVEAARLRALDDHDAGTRRRLLLLLCAVCRGCSALGQLGRGHLTQVVLRLGEDNVDWTEEALGERFLQALELLIGSLEQASLPCHFNPSVNLFSSLREEEIDDIGYALYSGLQEPEGLL |
| no binding | Mff (protein, UniProt Q9GZY8 1-342) MSKGTSSDTSLGRVSRAAFPSPTAAEMAEISRIQYEMEYTEGISQRMRVPEKLKVAPPNADLEQGFQEGVPNASVIMQVPERIVVAGNNEDVSFSRPADLDLIQSTPFKPLALKTPPRVLTLSERPLDFLDLERPPTTPQNEEIRAVGRLKRERSMSENAVRQNGQLVRNDSLWHRSDSAPRNKISRFQAPISAPEYTVTPSPQQARVCPPHMLPEDGANLSSARGILSLIQSSTRRAYQQILDVLDENRRPVLRGGSAAATSNPHHDNVRYGISNIDTTIEGTSDDLTVVDAASLRRQIIKLNRRLQLLEEENKERAKREMVMYSITVAFWLLNSWLWFRR |
